In a compilation of properties of binary mixtures (doi:10.1016/j.jct.2011.12.003):
The densities may have been worked out from excess volumes.

Assay: xn = mol fraction of the nth substance listed
Details: 101 kPa

CCCCCCCC[n+]1ccc2ccccc2c1.O=S(=O)([N-]S(=O)(=O)C(F)(F)F)C(F)(F)F + OCCc1ccccc1
mass density [kg/m3]
Details | x2 = 0 | x2 = 0.0851 | x2 = 0.1985 | x2 = 0.3101 | x2 = 0.3748 | x2 = 0.4969 | x2 = 0.5766 | x2 = 0.695 | x2 = 0.8076 | x2 = 0.8956
298.15 K | 1330.8 | 1322 | 1308.7 | 1293 | 1282.5 | 1258.7 | – | 1203 | 1155.4 | –
308.15 K | 1322 | 1313.3 | 1300.2 | 1284.7 | 1274.2 | 1250.4 | 1231.2 | – | 1147.4 | 1096.3
318.15 K | 1313.6 | 1305 | – | 1276.3 | – | 1242.1 | – | 1186.7 | 1139.4 | 1088.5
328.15 K | 1305.2 | – | 1283.5 | 1268 | – | 1233.7 | – | – | 1131.4 | 1080.6
338.15 K | 1296.8 | – | 1275.2 | 1259.7 | – | 1225.4 | 1206.5 | – | 1123.4 | 1072.7

CCCCCCCC[n+]1ccc2ccccc2c1.O=S(=O)([N-]S(=O)(=O)C(F)(F)F)C(F)(F)F + CCCCO
mass density [kg/m3]
Details | 298.15 K | 308.15 K | 318.15 K | 328.15 K | 338.15 K
x2 = 0 | 1330.8 | 1322 | 1313.6 | 1305.2 | 1296.8
x2 = 0.048 | 1324.3 | – | 1307.2 | 1298.8 | 1290.4
x2 = 0.0865 | 1318.8 | 1310.1 | 1301.7 | 1293.3 | 1284.9
x2 = 0.1708 | 1305.6 | 1297 | 1288.6 | – | 1271.6
x2 = 0.3134 | – | – | 1261.9 | 1253.4 | –
x2 = 0.4036 | 1258 | 1249.4 | 1240.8 | 1232.2 | 1223.6
x2 = 0.5032 | – | 1220.7 | 1212.1 | 1203.4 | 1194.7
x2 = 0.6067 | 1191.1 | 1182.4 | 1173.8 | 1165.1 | 1156.3
x2 = 0.6915 | 1150 | – | 1132.7 | 1124.1 | –
x2 = 0.7937 | 1082.2 | 1073.6 | – | 1056.4 | –
x2 = 0.9314 | 931.8 | 923.6 | 915.4 | 907 | 898.5

CCCCCCCC[n+]1ccc2ccccc2c1.O=S(=O)([N-]S(=O)(=O)C(F)(F)F)C(F)(F)F + CCCCCCO
mass density [kg/m3]
Details | x2 = 0 | x2 = 0.0854 | x2 = 0.1805 | x2 = 0.2857 | x2 = 0.3673 | x2 = 0.4981 | x2 = 0.5825 | x2 = 0.6854 | x2 = 0.7913 | x2 = 0.9063
298.15 K | 1330.8 | 1315.4 | 1296.1 | 1271.3 | 1249 | 1205.5 | 1170.7 | 1118.4 | 1047.8 | 941.2
308.15 K | 1322 | 1306.7 | 1287.6 | 1262.9 | 1240.5 | 1197.1 | 1162.3 | 1110 | 1039.6 | –
318.15 K | 1313.6 | 1298.4 | 1279.2 | – | 1232.1 | 1188.6 | 1153.9 | 1101.6 | 1031.4 | 925.7
328.15 K | 1305.2 | 1290 | 1270.8 | 1246 | 1223.6 | 1180.2 | 1145.5 | 1093.2 | 1023.2 | 917.8
338.15 K | 1296.9 | 1281.6 | – | 1237.6 | 1215.2 | 1171.8 | 1137.1 | – | 1014.9 | –

CCCCCCO + CCCCCCCC[n+]1ccc2ccccc2c1.O=S(=O)([N-]S(=O)(=O)C(F)(F)F)C(F)(F)F
x1 = 1
Details | mass density [kg/m3]
298.15 K | 815.2
308.15 K | 808
318.15 K | 800.6
338.15 K | 785.5

CCCCO + CCCCCCCC[n+]1ccc2ccccc2c1.O=S(=O)([N-]S(=O)(=O)C(F)(F)F)C(F)(F)F
x1 = 1
Details | mass density [kg/m3]
298.15 K | 805.8
308.15 K | 798.1
318.15 K | 790.2
328.15 K | 782.2
338.15 K | 773.9

OCCc1ccccc1 + CCCCCCCC[n+]1ccc2ccccc2c1.O=S(=O)([N-]S(=O)(=O)C(F)(F)F)C(F)(F)F
x1 = 1
Details | mass density [kg/m3]
298.15 K | 1016.2
308.15 K | 1008.6
318.15 K | 1001
328.15 K | 993.3
338.15 K | 985.5
